From PubChem BioAssay AID686979 (National Center for Advancing Translational Sciences (NCATS), 2013)
The campaign covered roughly 420,000 compounds. About 50,000 (12%) were called active. This list was built around the results that the source calls inconclusive (neither active nor inactive); the mix of calls is not that of the screen. The call rests on the fitted dose curve; in most records, active means well fitted inhibition curve with a large enough effect; inconclusive means small, poorly fitted or top-dose-only effect; inactive means flat fitted curve, though single readings scatter. Potencies of inconclusive entries are left out as doubtful fits.

Assay: qHTS for Inhibitors of human tyrosyl-DNA phosphodiesterase 1 (TDP1): qHTS in cells in presence of CPT; further: nearly all actives have a fitted effect of over 55% in size
Conditions: chicken DT40 Tdp1-/-;hTDP1 cells + 20 nM CPT, ATP luminescence, 48 h; series mostly up to 46.2 µM
From the text: Human tyrosyl-DNA phosphodiesterase 1 (TDP1) is a novel repair gene, and we propose to use it as a new target for anticancer drug development. TDP1 is not an essential protein, but under treatment with topoisomerase I poison (camptothecin: CPT), TDP1 works as a critical factor for cell survival. To directly identify novel TDP1 inhibitors active in a cellular environment, we have knocked-out the Tdp1 gene in chicken DT40 cells (Tdp1-/-) and generated a complemented counterpart cells that contains a stable transfection of the human TDP1 gene (Tdp1-/-;hTDP1 cells). For the primary screen, Tdp1-/-;hTDP1 cells will be exposed to small molecules in the presence or absence of CPT, and their growth kinetics will be evaluated after 48 hours by measuring ATP activity. […] The hit compounds will then be evaluated in the presence or absence of CPT using Tdp1-/- cells. […] In tertiary assays, biochemical gel-based assays will be used to assess whether the hit compounds specifically target TDP1. To this end, we have screened this cell line against the MLSMR in two primary screens. In one screen we add CPT and in the other we screen in the absence of CPT; this AID represents the screen where CPT was present. NIH Chemical Genomics Center [NCGC] NIH Molecular Libraries Probe Centers Network [MLPCN] MLPCN Grant: MH095538 Assay Submitter (PI): Yves Pommier, NCI
DT40-hTDP1 cells with 20 nM Camptothecin (add 20 microL of 1 mM CPT stock in 1 L of cell culture medium) were dispensed at 400 cells/5microL/well in tissue culture treated 1536-well white wall/solid bottom assay plates (Greiner Bio-One North America, NC, U.S.A.) using a Multidrop Combi 8 channel dispenser (Thermo Fisher, Waltham, MA, USA). 23 nL compounds and controls were transferred using the pin tool (Kalypsys, San Diego, CA, USA) to the assay plates. The assay plates were then incubated at 37 masculineC for a minimum 48 hr. Three microL of Cell Titer Glo solution was added to the plates and incubated at RT in dark for 30 min. Luminescence was read using ViewLux (Perkin Elmer) with 1 sec exposure slow speed, high gain and 2x binning.
Potency means the concentration at half of the fitted maximal effect; tags describe the fitted curve by direction and shape.

Row | Compound | Potency
1 | COC(=O)CC1SC(=O)NC1=O (stereo not given) | inactive
2 | COc1cccc(-c2cnc(NCc3cc(Cl)ccc3O)n2C)c1 | inconclusive [inhibitor, single point]
3 | COc1ccc(Cl)cc1NC(=O)CN(C)C(=O)CCc1nc2ccccc2c(=O)[nH]1 | inconclusive [inhibitor, partial curve]
4 | Nc1cc(Cl)ccc1C(=O)OCC(=O)NCc1cccs1 | inconclusive [inhibitor, single point]
5 | Cc1ccc(C2(C(=O)N3CCC(n4nc(-c5ccccc5)oc4=O)CC3)CC2)cc1 | inconclusive [inhibitor, single point]
6 | COc1ccc(CCNC(=O)c2cccnc2Cl)cc1OC | inactive
7 | CCC1(C)OC(=O)N2CCc3c(C)[nH]c4c(C)ccc(c34)C21C (stereo not given) | inconclusive [inhibitor, single point]
8 | O=C(c1cnn(C(=O)c2ccco2)c1)c1ccccc1O | inconclusive [inhibitor, single point]
9 | COc1ccc(NC(=O)CN(C)C(=O)c2cn(-c3ccccc3)nc2-c2ccc(Cl)cc2)cc1 | inconclusive [inhibitor, single point]
10 | Cc1cc(SCC(=O)NC2CCCC2)nc2ccccc12 | inactive
11 | Cc1ccc(C(=O)NCc2ccc(N3CCN(C)CC3)cc2)cc1C | inactive
12 | O=C(CSc1c2c(nc3ccccc13)CCC2)Nc1ccc(F)cc1F | inconclusive [inhibitor, single point]
13 | COc1ccccc1CNC(=O)C1CCCN(S(=O)(=O)c2cccc3nsnc23)C1 (stereo not given) | inconclusive [inhibitor, single point]
14 | CO[C@H]1O[C@H](CBr)[C@@H](OC(=O)c2ccccc2)[C@H](O)[C@H]1O | inactive
15 | CCN(C(=S)NC(=O)c1ccccc1Br)C1CCCCC1 | active: 16.4 µM
16 | CCOC(=O)c1[nH]c(C)c(CCC(=O)NCc2cccc(Cl)c2)c1C | inconclusive [inhibitor, single point]
17 | Cc1ccc(OCCSc2nc(-c3cccs3)nc3cc(=O)[nH]n23)cc1Cl | inconclusive [inhibitor, partial curve]
18 | O=C(Cc1c(F)cccc1Cl)Nc1ccc(S(=O)(=O)N2CCCC2)cc1 | inactive
19 | COC(=O)[C@]12CCCCC=C1N(Cc1ccco1)C(=O)[C@H](CC(=O)NCCC(C)C)C2 | inconclusive [inhibitor, single point]
20 | CC(C)CC(=O)NC(=S)Nc1ccc(N2CCCC2)c(Cl)c1 | inactive
21 | O=C(Nc1nc2ccccc2s1)c1cc2c(s1)-c1ccccc1OC2 | inconclusive [inhibitor, partial curve, poor fit]
22 | Cc1nn(CC(=O)NN)c(C)c1Br | inactive
23 | Cc1ccccc1NC(=S)NC(=O)Cc1ccc(Cl)cc1 | inconclusive [inhibitor, single point]

Row | Compound | Potency
24 | NS(=O)(=O)c1cc(C(=O)N=Nc2c(O)[nH]c3ccccc23)ccc1Cl | inconclusive [inhibitor, single point]
25 | CN(C)C(=O)CCc1ccc2c3c([nH]c2c1)[C@]1(CCc2ccccc2)[C@@H](C(=O)N2CCCCC2)C[C@H](CC(=O)NCCCn2ccnc2)C(=O)N1CC3 | inactive
26 | CN(CC(=O)Nc1cc(S(=O)(=O)N2CCCC2)ccc1Cl)Cc1cccs1 | inconclusive [inhibitor, single point]
27 | Cc1ccc(C(=O)Nc2ccc(C)c(S(=O)(=O)Nc3ccccc3Cl)c2)s1 | inconclusive [inhibitor, partial curve]
28 | COc1ccccc1CCNC(=O)Cc1c(C)c2c(O)cc(C)cc2oc1=O | inconclusive [inhibitor, single point]
29 | O=C(Cn1nnc(-c2ccccc2)n1)N/N=C/c1cc([N+](=O)[O-])ccc1O | active: 5.8 µM
30 | Cc1cnc(NC(=O)c2cccc(S(=O)(=O)N3CCOCC3)c2)s1 | inactive
31 | c1csc(-c2nc(-c3ccc(-c4ccon4)s3)no2)c1 | inactive
32 | O=C(c1cc(COc2ccc(F)c(F)c2)on1)N1CCOCC1 | inconclusive [inhibitor, full curve, poor fit]
33 | CC(C)[Si]1(C(C)C)OCC2OC(n3cnc4c(N)ncnc43)C(N)C2O[Si](C(C)C)(C(C)C)O1 (stereo not given) | active: 13 µM
34 | COc1ccc(OC)c(CNC(=O)C2CCCN(c3ncnc4c3nc3n4CCCCC3)C2)c1 (stereo not given) | inconclusive [inhibitor, single point]
35 | CCn1cc2nc(SCC(=O)Nc3ccc(OC)cc3OC)n(Cc3ccc(OC)cc3)c(=O)c2n1 | active: 4.11 µM
36 | COC(=O)c1ccc(NC(=O)C(=O)N2CCN(C(=S)NCCc3ccccc3)CC2)cc1 | inconclusive [inhibitor, single point]
37 | COc1ccccc1-n1nc(C)c(-c2ccccc2)c1N | inconclusive [inhibitor, single point]
38 | COc1ccc2cc(-c3ccccc3F)ncc2c1 | inconclusive [inhibitor, single point]
39 | COc1ccc2c(c1)c1nnc(SCCN3CCOCC3)nc1n2C | inconclusive [inhibitor, single point]
40 | COc1ccc(Cl)c(-c2cc(C(=O)Nc3ccccc3)[nH]n2)c1 | active: 23.1 µM
41 | CCc1cc(=O)oc2c3c(cc(OCC(=O)NCCCn4ccnc4)c12)OC(C)(C)CC3 | inconclusive [inhibitor, single point]
42 | Cn1c(SCCc2ccc([N+](=O)[O-])cc2)nccc1=O | inconclusive [inhibitor, single point]
43 | CCN(CC)c1ccc(NC(=O)COC(=O)/C=C/c2nc3ccccc3s2)cc1 | inactive
44 | C[C@@H]1CN([C@H](C)CO)C(=O)CCCn2cc(nn2)CO[C@H]1CN(C)C(=O)C1CC1 | inactive
45 | CCOC(=O)[C@]12CCC=C1N(CCC1=CCCCC1)C(=O)[C@H](CC(=O)NCc1cccs1)C2 | inconclusive [inhibitor, single point]
